From PubChem BioAssay AID1159614 (National Center for Advancing Translational Sciences (NCATS), 2016) come the findings set out here.

In all, about 45,000 compounds went through this assay and about 65 (0.1%) were called active. Calls come from the whole dose curve; as a rule, active = well fitted activation curve with a large enough effect; inconclusive = small, poorly fitted or top-dose-only effect; inactive = no such curve, though single readings can be large or run the other way. Some of the results follow.

In this assay the target is Galactocerebrosidase (Homo sapiens) (UniProt P54803). Description: A Novel Cell-Based Assay to Identify Small Molecules for B -Galactocerebrosidase. Note: 0% is about no effect; nearly all actives have a fitted effect of over 65% in size. Conditions: 145M-Twi-hGALC-G270D cells (Twitcher mouse brain line with human GALC G270D), HMU-beta-Gal fluorescence, 48 h; series mostly up to 57.5 µM; activation: at the top concentration. The gist of the method: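 Live 145M-Twi cells (Twitcher mouse brain-derived, GALC-null) stably expressing human GALC-G270D, with a wild-type GALC line, were compound-treated. Residual GALC activity was then read as fluorescence from 0.1 mM final HMU-β-gal at pH 5.2; higher signal means activation.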
Chain of UniProt P54803 (P54803 whole entry, looked up): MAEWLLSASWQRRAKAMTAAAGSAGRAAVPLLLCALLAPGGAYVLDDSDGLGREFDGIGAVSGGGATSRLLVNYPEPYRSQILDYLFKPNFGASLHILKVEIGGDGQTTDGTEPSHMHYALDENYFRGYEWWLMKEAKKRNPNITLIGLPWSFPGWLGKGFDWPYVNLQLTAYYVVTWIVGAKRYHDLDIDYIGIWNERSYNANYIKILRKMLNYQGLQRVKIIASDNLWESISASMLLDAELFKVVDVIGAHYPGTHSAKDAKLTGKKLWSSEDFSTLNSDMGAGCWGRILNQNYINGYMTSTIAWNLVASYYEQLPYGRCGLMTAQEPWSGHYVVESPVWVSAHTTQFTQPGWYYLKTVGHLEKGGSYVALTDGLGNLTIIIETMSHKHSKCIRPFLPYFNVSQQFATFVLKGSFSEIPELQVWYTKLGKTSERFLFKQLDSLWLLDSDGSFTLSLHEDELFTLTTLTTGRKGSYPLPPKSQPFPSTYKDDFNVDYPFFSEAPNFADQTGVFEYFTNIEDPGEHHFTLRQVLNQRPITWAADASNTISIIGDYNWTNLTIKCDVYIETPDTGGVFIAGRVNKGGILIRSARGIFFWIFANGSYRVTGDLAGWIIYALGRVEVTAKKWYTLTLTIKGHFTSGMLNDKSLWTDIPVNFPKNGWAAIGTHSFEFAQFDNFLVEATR
For the molecule `COc1ccc(NC(=O)c2nc3nc(C)cc(C(F)F)n3n2)c(C)c1`, the “activation” value is inactive: -1.23%. To `COc1cc2ccccc2cc1C(=O)Nc1ccc2oc(-c3cccc(Cl)c3Cl)nc2c1` belongs inactive: -10.7%.

For `CC(C)(C)OC(=O)N1CCC(c2c(C(=O)NCCN3CCC(Cc4ccccc4)CC3)cnn2-c2ccccc2)CC1`, the “activation” value was inactive: -13.9%.

Consider `CCc1ccc(NC(=O)N2CC(C)Oc3ccc(C)cc32)cc1` (configuration not stated), for which the “activation” value was inactive: 2.04%.

With `COCCCNc1ncnc2c1cnn2-c1ccc(F)cc1`, the “activation” value was inactive: -24.7%. To `CCc1ccc(S(=O)(=O)c2nnn3c2nc(N2CCCC2)c2sccc23)cc1` belongs inactive: -4.47%; to `CCCn1c(NCc2ccccc2C)nc2ccccc21`, inactive: 0.319%. To `COc1ccc(-n2cc(-c3ccccc3)nc2SCC(=O)Nc2ccccc2)cc1Cl` belongs inactive: -4.52%. With `CN1C(=O)Cc2cc(S(=O)(=O)CCC(=O)N3CCN(c4ccccc4F)CC3)ccc21`, the “activation” value was inactive: 10.4%.

Turning to `COc1ccc(NC(=O)COCc2cc(-c3cccs3)on2)cc1`, the “activation” value is inactive: -15.4%. For the molecule `Cc1ccccc1C1C=C(c2ccc(Cl)cc2)Nc2nnnn21` (configuration not stated), the “activation” value is inactive: 1.27%. Next, `CCOC(=O)c1ccc(NC(=O)Cn2cnc(S(=O)(=O)N3CCCC3)c2)cc1`: inactive: -5.04%; `COc1ccc(-n2nc3c(N4CCCC(C(=O)NCCc5ccc(C)cc5)C4)nnc(C)c3c2C)cc1` (configuration not stated): inactive: 1.13%.

Regarding `COc1ccc(-c2cc(C(F)(F)F)n3nc(C(=O)Nc4cccc(Cl)c4C)cc3n2)cc1`, the “activation” value is inactive: -13.3%. For the molecule `COc1cc(C2c3c(oc4ccccc4c3=O)C(=O)N2c2nnc(C(C)C)s2)cc(OC)c1OC` (configuration not stated), the “activation” value was inactive: -15.6%. To `CCOc1ccccc1CNC(=O)c1cc(-c2ccc(OC)cc2)nc2ccc(C(C)C)cc12` belongs inactive: -4.66%; to `CCOc1ccc(OCC)c(NC(=O)CCc2c(C)nc3c(c2C)c(=O)n(C)c(=O)n3C)c1`, inactive: 5.6%; to `O=C(c1ccc2c(c1)N(Cc1ccccc1)C(=O)c1ccccc1S2(=O)=O)N1CCN(c2ccccn2)CC1`, inactive: -15.8%.

Consider `CCSc1ncc(Cl)c(C(=O)Nc2c(C(=O)Nc3ccc(Cl)cc3)oc3ccccc23)n1`, for which the “activation” value was inactive: 12.7%.

As for `COc1ccc(/C=C/c2noc(-c3ccccc3O)n2)cc1OC`, the “activation” value is inactive: -3.4%. To `Cc1ccc(Cn2ccn(Cc3ccccc3C)c(=O)c2=O)cc1` belongs inactive: -11.6%; to `COC(=O)c1ccccc1NC(=O)Cn1c(=O)n(-c2ccc(Cl)cc2)c(=O)c2c(C)c(C)sc21`, inactive: -1.28%; to `COc1ccc(CNC(=O)c2ccc3c(c2)nc2n3CCCCC2)c(OC)c1`, inactive: 3.26%.

For the molecule `CCOC(=O)c1cccc(NS(=O)(=O)c2cn(C)c(C)n2)c1`, the “activation” value was inactive: -17.7%. Regarding `Cc1cc(C)n(-c2nc3ccccc3nc2Nc2cc(C(=O)O)ccc2C)n1`, the “activation” value was inactive: -6.78%. To `Cc1cc(C)cc(-n2nnc(-c3nc(-c4ccccc4F)no3)c2C)c1` belongs inactive: -22.4%; to `COc1cc(NS(=O)(=O)c2ccc3c(c2)CCCN3C(C)=O)cc(OC)c1OC`, inactive: -17.9%.
